# Measurements: the supplement of paper PMC8728848
# The list shows a part of the results.
# B1: FGFR2-Fc (protein)
# chain: MVNVTDAISSGDDEDDTDGAEDFVSENSNNKRAPYWTNTEKMEKRLHAVPAANTVKFRCPAGGNPMPTMRWLKNGKEFKQEHRIGGYKVRNQHWSLIMESVVPSDKGNYTCVVENEYGSINHTYHLDVVERSPHRPILQAGLPANASTVVGGDVEFVCKVYSDAQPHIQWIKHVEKNGSKYGPDGLPYLKVLKHSGINSSNAEVLALFNVTEADAGEYICKVSNYIGQANQSAWLTVLPKQQAPGREKEITASPDYLETRPLEQKLISEEDLAANDILDYKDDDDKV
# Tests used:
# Test in all cases: glycan array binding signal (z-score within array); higher = stronger binding
# Details in all cases: glycan notation: IUPAC condensed, linker removed
# Neu5Ac(a2-3)GalNAc = target: Neu5Ac(a2-3)GalNAc
# Procedure, shortened: (§1)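 Columns mapping to the same glycan were averaged after glycan names were converted to IUPAC-condensed notation. The data come from 3228 arrays in the Consortium for Functional Glycomics database, limited to those with an available protein sequence. Binding is reported as a within-array Z-score averaged across arrays of one protein sequence and across linkers.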
# [1] = target: Neu5Ac(a2-3)GalNAc(b1-4)GlcNAc
# Procedure, shortened: as §1
# [2] = target: Neu5Ac(a2-3)[GalNAc(b1-4)]Gal(b1-4)Glc
# Procedure, shortened: as §1
# [3] = target: Neu5Ac(a2-3)[GalNAc(b1-4)]Gal(b1-4)GlcNAc
# Procedure, shortened: as §1
# [4] = target: Neu5Ac(a2-3)[GalNAc(b1-4)]Gal(b1-4)GlcNAc(b1-3)GalNAc
# Procedure, shortened: as §1
# [5] = target: Neu5Ac(a2-3)[Neu5Ac(a2-6)]GalNAc
# Procedure, shortened: as §1
# Neu5Ac(a2-6)Gal = target: Neu5Ac(a2-6)Gal
# Procedure, shortened: as §1
# [6] = target: Neu5Ac(a2-6)Gal(b1-3)GlcNAc(b1-3)[Gal(b1-4)GlcNAc(b1-6)]Gal(b1-4)Glc
# Procedure, shortened: as §1
# Neu5Ac(a2-6)Gal(b1-4)Glc = target: Neu5Ac(a2-6)Gal(b1-4)Glc
# Procedure, shortened: as §1
# [7] = target: Neu5Ac(a2-6)Gal(b1-4)GlcNAc
# Procedure, shortened: as §1
# [8] = target: Neu5Ac(a2-6)Gal(b1-4)GlcNAc(b1-2)Man
# Procedure, shortened: as §1
# [9] = target: Neu5Ac(a2-6)Gal(b1-4)GlcNAc(b1-2)Man(a1-3)Man(b1-4)GlcNAc(b1-4)GlcNAc
# Procedure, shortened: as §1
# [10] = target: Neu5Ac(a2-6)Gal(b1-4)GlcNAc(b1-2)Man(a1-3)[Gal(b1-4)GlcNAc(b1-2)Man(a1-6)]Man(b1-4)GlcNAc(b1-4)GlcNAc
# Procedure, shortened: as §1
# [11] = target: Neu5Ac(a2-6)Gal(b1-4)GlcNAc(b1-2)Man(a1-3)[GlcNAc(b1-2)Man(a1-6)]Man(b1-4)GlcNAc(b1-4)GlcNAc
# Procedure, shortened: as §1
# [12] = target: Neu5Ac(a2-6)Gal(b1-4)GlcNAc(b1-2)Man(a1-3)[GlcNAc(b1-4)][Neu5Ac(a2-6)Gal(b1-4)GlcNAc(b1-2)Man(a1-6)]Man(b1-4)GlcNAc(b1-4)GlcNAc
# Procedure, shortened: as §1
# [13] = target: Neu5Ac(a2-6)Gal(b1-4)GlcNAc(b1-2)Man(a1-3)[Man(a1-6)]Man(b1-4)GlcNAc(b1-4)GlcNAc
# Procedure, shortened: as §1
# [14] = target: Neu5Ac(a2-6)Gal(b1-4)GlcNAc(b1-2)Man(a1-3)[Neu5Ac(a2-3)Gal(b1-4)GlcNAc(b1-2)Man(a1-6)]Man(b1-4)GlcNAc(b1-4)GlcNAc
# Procedure, shortened: as §1
# [15] = target: Neu5Ac(a2-6)Gal(b1-4)GlcNAc(b1-2)Man(a1-3)[Neu5Ac(a2-6)Gal(b1-4)GlcNAc(b1-2)Man(a1-6)]Man(b1-4)GlcNAc(b1-4)GlcNAc
# Procedure, shortened: as §1
# [16] = target: Neu5Ac(a2-6)Gal(b1-4)GlcNAc(b1-2)Man(a1-3)[Neu5Ac(a2-6)Gal(b1-4)GlcNAc(b1-2)Man(a1-6)]Man(b1-4)GlcNAc(b1-4)[Fuc(a1-6)]GlcNAc
# Procedure, shortened: as §1
# [17] = target: Neu5Ac(a2-6)Gal(b1-4)GlcNAc(b1-2)Man(a1-6)Man(b1-4)GlcNAc(b1-4)GlcNAc
# Procedure, shortened: as §1
# [18] = target: Neu5Ac(a2-6)Gal(b1-4)GlcNAc(b1-2)Man(a1-6)[Gal(b1-4)GlcNAc(b1-2)Man(a1-3)]Man(b1-4)GlcNAc(b1-4)GlcNAc
# Procedure, shortened: as §1
# [19] = target: Neu5Ac(a2-6)Gal(b1-4)GlcNAc(b1-2)Man(a1-6)[GlcNAc(b1-2)Man(a1-3)]Man(b1-4)GlcNAc(b1-4)GlcNAc
# Procedure, shortened: as §1
# [20] = target: Neu5Ac(a2-6)Gal(b1-4)GlcNAc(b1-2)Man(a1-6)[Man(a1-3)]Man(b1-4)GlcNAc(b1-4)GlcNAc
# Procedure, shortened: as §1
# [21] = target: Neu5Ac(a2-6)Gal(b1-4)GlcNAc(b1-2)[Neu5Ac(a2-6)Gal(b1-4)GlcNAc(b1-4)]Man(a1-3)[GlcNAc(b1-4)][Neu5Ac(a2-6)Gal(b1-4)GlcNAc(b1-2)[Neu5Ac(a2-6)Gal(b1-4)GlcNAc(b1-6)]Man(a1-6)]Man(b1-4)GlcNAc(b1-4)GlcNAc
# Procedure, shortened: as §1
# [22] = target: Neu5Ac(a2-6)Gal(b1-4)GlcNAc(b1-2)[Neu5Ac(a2-6)Gal(b1-4)GlcNAc(b1-4)]Man(a1-3)[GlcNAc(b1-4)][Neu5Ac(a2-6)Gal(b1-4)GlcNAc(b1-4)Man(a1-6)]Man(b1-4)GlcNAc(b1-4)GlcNAc
# Procedure, shortened: as §1
# [23] = target: Neu5Ac(a2-6)Gal(b1-4)GlcNAc(b1-2)[Neu5Ac(a2-6)Gal(b1-4)GlcNAc(b1-6)]Man(a1-6)[Neu5Ac(a2-6)Gal(b1-4)GlcNAc(b1-2)Man(a1-3)][GlcNAc(b1-4)]Man(b1-4)GlcNAc(b1-4)GlcNAc
# Procedure, shortened: as §1
# [24] = target: Neu5Ac(a2-6)Gal(b1-4)GlcNAc(b1-3)Gal(b1-3)GlcNAc
# Procedure, shortened: as §1
# [25] = target: Neu5Ac(a2-6)Gal(b1-4)GlcNAc(b1-3)Gal(b1-4)GlcNAc
# Procedure, shortened: as §1
# [26] = target: Neu5Ac(a2-6)Gal(b1-4)GlcNAc(b1-3)Gal(b1-4)GlcNAc(b1-2)Man(a1-3)[Neu5Ac(a2-6)Gal(b1-4)GlcNAc(b1-3)Gal(b1-4)GlcNAc(b1-2)Man(a1-6)]GalNAc
# Procedure, shortened: as §1
# [27] = target: Neu5Ac(a2-6)Gal(b1-4)GlcNAc(b1-3)Gal(b1-4)GlcNAc(b1-3)Gal(b1-4)GlcNAc
# Procedure, shortened: as §1
# [28] = target: Neu5Ac(a2-6)Gal(b1-4)GlcNAc(b1-3)Gal(b1-4)GlcNAc(b1-3)Gal(b1-4)GlcNAc(b1-2)Man(a1-3)[Neu5Ac(a2-6)Gal(b1-4)GlcNAc(b1-3)Gal(b1-4)GlcNAc(b1-3)Gal(b1-4)GlcNAc(b1-2)Man(a1-6)]GalNAc
# Procedure, shortened: as §1
# [29] = target: Neu5Ac(a2-6)Gal(b1-4)GlcNAc(b1-3)Gal(b1-4)GlcNAc(b1-3)GalNAc
# Procedure, shortened: as §1
# [30] = target: Neu5Ac(a2-6)Gal(b1-4)GlcNAc(b1-3)Gal(b1-4)GlcNAc(b1-3)[Neu5Ac(a2-6)Gal(b1-4)GlcNAc(b1-3)Gal(b1-4)GlcNAc(b1-6)]GalNAc
# Procedure, shortened: as §1
# [31] = target: Neu5Ac(a2-6)Gal(b1-4)GlcNAc(b1-3)Gal(b1-4)GlcNAc(b1-6)[Gal(b1-3)]GalNAc
# Procedure, shortened: as §1
# [32] = target: Neu5Ac(a2-6)Gal(b1-4)GlcNAc(b1-3)Gal(b1-4)[Fuc(a1-3)]GlcNAc(b1-3)Gal(b1-4)[Fuc(a1-3)]GlcNAc
# Procedure, shortened: as §1
# [33] = target: Neu5Ac(a2-6)Gal(b1-4)GlcNAc(b1-3)GalNAc
# Procedure, shortened: as §1
# [34] = target: Neu5Ac(a2-6)Gal(b1-4)GlcNAc(b1-3)[Neu5Ac(a2-6)Gal(b1-4)GlcNAc(b1-6)]GalNAc
# Procedure, shortened: as §1
binder,measurement,setting,value
B1,glycan array binding signal (z-score),Neu5Ac(a2-3)GalNAc,0.151
same,glycan array binding signal (z-score),[1],0.034
same,glycan array binding signal (z-score),[2],-0.275
same,glycan array binding signal (z-score),[3],-0.479
same,glycan array binding signal (z-score),[4],-0.14
same,glycan array binding signal (z-score),[5],0.729
same,glycan array binding signal (z-score),Neu5Ac(a2-6)Gal,-0.146
same,glycan array binding signal (z-score),[6],-0.257
same,glycan array binding signal (z-score),Neu5Ac(a2-6)Gal(b1-4)Glc,-0.521
same,glycan array binding signal (z-score),[7],-0.018
same,glycan array binding signal (z-score),[8],-0.006
same,glycan array binding signal (z-score),[9],-0.132
same,glycan array binding signal (z-score),[10],-0.297
same,glycan array binding signal (z-score),[11],-0.022
same,glycan array binding signal (z-score),[12],-0.136
same,glycan array binding signal (z-score),[13],-0.055
same,glycan array binding signal (z-score),[14],-0.161
same,glycan array binding signal (z-score),[15],0.39
same,glycan array binding signal (z-score),[16],0.517
same,glycan array binding signal (z-score),[17],0.242
same,glycan array binding signal (z-score),[18],0.258
same,glycan array binding signal (z-score),[19],-0.077
same,glycan array binding signal (z-score),[20],-0.126
same,glycan array binding signal (z-score),[21],0.096
same,glycan array binding signal (z-score),[22],-0.026
same,glycan array binding signal (z-score),[23],-0.439
same,glycan array binding signal (z-score),[24],-0.108
same,glycan array binding signal (z-score),[25],-0.58
same,glycan array binding signal (z-score),[26],-0.158
same,glycan array binding signal (z-score),[27],-0.107
same,glycan array binding signal (z-score),[28],1.17
same,glycan array binding signal (z-score),[29],-0.769
same,glycan array binding signal (z-score),[30],0.238
same,glycan array binding signal (z-score),[31],0.737
same,glycan array binding signal (z-score),[32],0.114
same,glycan array binding signal (z-score),[33],-0.061
same,glycan array binding signal (z-score),[34],0.42
